For 195 variants, enrichment ratio results are on record in a collection of fitness landscapes (doi:10.1126/science.1257360).

To fix the notation:
B1: PhoQ; a variant is named by its letters at X, in order, P23837 (parent)
chain: MKKLLRLFFPLSLRVRFLLATAAVVLVLSLAYGMVALIGYSVSFDKTTFRLLRGESNLFYTLAKWENNKLHVELPENIDKQSPTMTLIYDENGQLLWAQRDVPWLMKMIQPDWLKSNGFHEIEADVNDTSLLLSGDHSIQQQLQEVREDDDDAEMTHSVAVNVYPATSRMPKLTIVVVDTIPVELKSSYMVWSWFIYVLSANLLLVIPLLWVAAWWSLRPIEALAKEVRELEEHNRELLNPATTRELTSLVRNLNRLLKSERERYDKYRTTLTDLTHSLKTPLXXLQXXLRSLRSEKMSVSDAEPVMLEQISRISQQIGYYLHRASMRGGTLLSRELHPVAPLLDNLTSALNKVYQRKGVNISLDISPEISFVGEQNDFVEVMGNVLDNACKYCLEFVEISARQTDEHLYIVVEDDGPGIPLSKREVIFDRGQRVDTLRPGQGVGLAVAREITEQYEGKIVAGESMLGGARMEVIFGRQHSAPKDE

Some of the results follow. A value given as a limit tells only on which side of the number the result lay.

This test covers variants of B1. The test can be described thus: enrichment ratio after two sorts for PhoP signalling (ratio (wild type AVST 3.29)); higher = more functional. Particulars: with PhoP (E. coli).
WPQN: the enrichment ratio is at most 0.25.
Consider NKPT, for which the enrichment ratio was at most 0.25.
As to AAFC, the enrichment ratio was at most 0.25.
Take SRWK: the enrichment ratio is at most 0.25.
Regarding NPPG, the enrichment ratio was at most 0.25.
With SMFW, the enrichment ratio was at most 0.25.
On to NCFC, for which the enrichment ratio was at most 0.25.
With GQFA the figure was at most 0.25; with TDSF, at most 0.25.
For PIWC, the enrichment ratio is at most 0.25.
Take LMCW: the enrichment ratio is at most 0.25.
As for SSRP, the enrichment ratio was at most 0.25.
For the variant GNYL, the enrichment ratio was at most 0.25.
With KVTL the figure was at most 0.25; with QGVF, at most 0.25; with KEEL, at most 0.25.
With QAKM the figure was at most 0.25; with HQCD, at most 0.25; with DFDM, at most 0.25.
For RRIR, the enrichment ratio was at most 0.25.
The result for PEIK reads at most 0.25; that for AMII, at most 0.25.
Consider QTGI, for which the enrichment ratio was at most 0.25.
With IAIK the figure was at most 0.25; with ICQH, at most 0.25; with AGYK, at most 0.25.
On to PVNW, for which the enrichment ratio was at most 0.25.
Regarding IRRD, the enrichment ratio is at most 0.25.
Consider CAFL, for which the enrichment ratio is at most 0.25.
The result for MGIV reads 10.1.
For DDAE, the enrichment ratio was at most 0.25.
As for HMGC, the enrichment ratio was at most 0.25.
With FQVL, the enrichment ratio was determined as 0.38.
On to PDKF, for which the enrichment ratio is at most 0.25.
As to GSRE, the enrichment ratio was at most 0.25.
With QKYE the figure was at most 0.25; with NCTP, at most 0.25.
GYTI: the enrichment ratio came to 0.281.
On to PVPL, for which the enrichment ratio is at most 0.25.
Take ENDT: the enrichment ratio was at most 0.25.
As for FHSV, the enrichment ratio is at most 0.25.
EHHE: the enrichment ratio is at most 0.25.
On to STAM, for which the enrichment ratio was determined as 12.1.
With GFAS, the enrichment ratio was at most 0.25.
For LTMH, the enrichment ratio was 2.1.
Take VLST: the enrichment ratio is at most 0.25.
The result for ITFH reads at most 0.25.
On to LELI, for which the enrichment ratio came to 2.
With QYRA the figure was at most 0.25; with RVTG, at most 0.25; with TDGY, 11.5.
As to KQRN, the enrichment ratio is at most 0.25.
The result for PDCE reads at most 0.25; that for RFDM, at most 0.25.
Regarding PSRW, the enrichment ratio is at most 0.25.
With WKIP the figure was at most 0.25; with CCTF, at most 0.25; with HTRE, at most 0.25.
With GLMV, the enrichment ratio worked out at 2.35.
The result for QATL reads 2.32.
For the variant AELY, the enrichment ratio is 9.13.
Take GMRR: the enrichment ratio was at most 0.25.
Regarding LMME, the enrichment ratio was at most 0.25.
Regarding VFMF, the enrichment ratio was at most 0.25.
Consider YGTV, for which the enrichment ratio was at most 0.25.
For the variant KPRW, the enrichment ratio is at most 0.25.
As for MNIF, the enrichment ratio was at most 0.25.
Take NPCG: the enrichment ratio was at most 0.25.
For VYYF, the enrichment ratio is at most 0.25.
As to NMCV, the enrichment ratio was at most 0.25.
As for QKVW, the enrichment ratio is at most 0.25.
QQTH: the enrichment ratio is at most 0.25.
With QRGQ the figure was at most 0.25; with AEVL, 17.5; with DMIG, at most 0.25.
With ASPE, the enrichment ratio was at most 0.25.
With IKVE the figure was at most 0.25; with DHSE, at most 0.25.
Regarding YYEA, the enrichment ratio is at most 0.25.
Consider GAKV, for which the enrichment ratio was at most 0.25.
On to SEDI, for which the enrichment ratio was at most 0.25.
On to QMFT, for which the enrichment ratio is at most 0.25.
The result for DWDR reads at most 0.25; that for KACI, at most 0.25.
As to SHWS, the enrichment ratio came to 0.905.
Regarding EYGM, the enrichment ratio is at most 0.25.
Turning to EFWM, the enrichment ratio is at most 0.25.
With IYQH the figure was 0.425; with GDIT, 14; with VDQF, at most 0.25.
With ELHA the figure was at most 0.25; with WDRF, at most 0.25.
As to LWYI, the enrichment ratio was at most 0.25.
In the case of TMDR, the enrichment ratio was at most 0.25.
The result for EAIA reads at most 0.25; that for RTAL, at most 0.25; that for LFQY, at most 0.25.
Regarding DCFM, the enrichment ratio was at most 0.25.
Take RCTN: the enrichment ratio is at most 0.25.
Regarding FIAF, the enrichment ratio is at most 0.25.
The result for ANTY reads 4.81.
In the case of IMKP, the enrichment ratio was at most 0.25.
Regarding FAAW, the enrichment ratio is at most 0.25.
The result for FSVF reads at most 0.25; that for EPAF, at most 0.25; that for PCEG, 1.45.
Consider SMCW, for which the enrichment ratio amounted to 19.6.
Consider NALR, for which the enrichment ratio stood at 0.709.
Take WDFI: the enrichment ratio is at most 0.25.
Take SENK: the enrichment ratio is at most 0.25.
ENWK: the enrichment ratio is at most 0.25.
The result for SEFD reads at most 0.25.
In the case of HIMH, the enrichment ratio was at most 0.25.
For the variant YSLY, the enrichment ratio turned out to be 2.6.
As to DAYS, the enrichment ratio is at most 0.25.
Turning to NFDD, the enrichment ratio is at most 0.25.
On to IGSW, for which the enrichment ratio was at most 0.25.
Turning to FFKN, the enrichment ratio was at most 0.25.
Turning to DWGY, the enrichment ratio is at most 0.25.
For the variant QEVH, the enrichment ratio was at most 0.25.
As for NPAF, the enrichment ratio was at most 0.25.
As for NEFQ, the enrichment ratio was at most 0.25.
Turning to WGSW, the enrichment ratio was at most 0.25.
For KHAC, the enrichment ratio was at most 0.25.
As for MPCM, the enrichment ratio was at most 0.25.
As to FLHL, the enrichment ratio is at most 0.25.
Turning to RKCY, the enrichment ratio was at most 0.25.
As for VRCP, the enrichment ratio is at most 0.25.
With IGSC the figure was at most 0.25; with AWQR, at most 0.25; with DKYG, at most 0.25.
In the case of AAEW, the enrichment ratio was at most 0.25.
Turning to EELV, the enrichment ratio was at most 0.25.
For the variant ATQK, the enrichment ratio was at most 0.25.
On to FVPA, for which the enrichment ratio was at most 0.25.
Turning to FHSC, the enrichment ratio is at most 0.25.
The result for KPSG reads at most 0.25; that for QRWY, at most 0.25; that for VGLY, 0.455.
The result for VPFQ reads at most 0.25; that for HQYV, at most 0.25; that for LKRN, at most 0.25.
For the variant VNAY, the enrichment ratio was at most 0.25.
With LEPA the figure was at most 0.25; with IELT, 2.32.
Regarding YNKY, the enrichment ratio was at most 0.25.
Take HFHH: the enrichment ratio was at most 0.25.
As to MTMC, the enrichment ratio is at most 0.25.
As for VRTY, the enrichment ratio was at most 0.25.
For VYCF, the enrichment ratio is at most 0.25.
As to IPFP, the enrichment ratio was at most 0.25.
For the variant DNGN, the enrichment ratio was at most 0.25.
As for EPGC, the enrichment ratio was at most 0.25.
With NSIV the figure was at most 0.25; with QAAT, at most 0.25; with GQKW, at most 0.25.
With PYPN the figure was at most 0.25; with QHCI, at most 0.25; with IRFM, at most 0.25.
FWIA: the enrichment ratio is at most 0.25.
Take RYPR: the enrichment ratio was at most 0.25.
As for EFHL, the enrichment ratio is at most 0.25.
Regarding ITRT, the enrichment ratio is at most 0.25.
With NMAQ the figure was at most 0.25.
With IFSQ, the enrichment ratio was at most 0.25.
On to TVHW, for which the enrichment ratio is at most 0.25.
Turning to QIKS, the enrichment ratio is at most 0.25.
Turning to VPNV, the enrichment ratio is at most 0.25.
Take HETS: the enrichment ratio was at most 0.25.
As to LCIG, the enrichment ratio is at most 0.25.
As to KSSS, the enrichment ratio was at most 0.25.
As for ACKG, the enrichment ratio was at most 0.25.
As to PSDK, the enrichment ratio is at most 0.25.
In the case of MDTY, the enrichment ratio was at most 0.25.
Take NSVV: the enrichment ratio was at most 0.25.
With ALYK the figure was at most 0.25; with TPWK, at most 0.25.
Consider KEYI, for which the enrichment ratio was at most 0.25.
Regarding QDVE, the enrichment ratio was at most 0.25.
As for KPKM, the enrichment ratio was at most 0.25.
Turning to YMNW, the enrichment ratio was at most 0.25.
Consider DHRY, for which the enrichment ratio is at most 0.25.
As for HPMH, the enrichment ratio is at most 0.25.
NMWG: the enrichment ratio was at most 0.25.
Turning to AYVP, the enrichment ratio was at most 0.25.
The result for YYFL reads 0.339; that for FSLK, 0.304; that for ICRH, at most 0.25.
As to KSVS, the enrichment ratio was at most 0.25.
As for TCHA, the enrichment ratio was at most 0.25.
With QEAI the figure was 5.29.
As for SCTH, the enrichment ratio is 9.21.
With VTSP the figure was at most 0.25; with TEYV, 4.31.
As to ASNY, the enrichment ratio was at most 0.25.
